Screen size: about 310,000 compounds; about 2,200 (0.71%) showed an effect of 50% or more. Effects have a minus sign here. This is one part of the list.

The target of this experiment is human ether-à-go-go-related gene (hERG) potassium channel (human, UniProt Q12809). Nature of the experiment: primary screen, population patch clamp on CHO cells stably expressing hERG.
Chain of human ether-à-go-go-related gene (hERG) potassium channel (Q12809 whole entry, looked up): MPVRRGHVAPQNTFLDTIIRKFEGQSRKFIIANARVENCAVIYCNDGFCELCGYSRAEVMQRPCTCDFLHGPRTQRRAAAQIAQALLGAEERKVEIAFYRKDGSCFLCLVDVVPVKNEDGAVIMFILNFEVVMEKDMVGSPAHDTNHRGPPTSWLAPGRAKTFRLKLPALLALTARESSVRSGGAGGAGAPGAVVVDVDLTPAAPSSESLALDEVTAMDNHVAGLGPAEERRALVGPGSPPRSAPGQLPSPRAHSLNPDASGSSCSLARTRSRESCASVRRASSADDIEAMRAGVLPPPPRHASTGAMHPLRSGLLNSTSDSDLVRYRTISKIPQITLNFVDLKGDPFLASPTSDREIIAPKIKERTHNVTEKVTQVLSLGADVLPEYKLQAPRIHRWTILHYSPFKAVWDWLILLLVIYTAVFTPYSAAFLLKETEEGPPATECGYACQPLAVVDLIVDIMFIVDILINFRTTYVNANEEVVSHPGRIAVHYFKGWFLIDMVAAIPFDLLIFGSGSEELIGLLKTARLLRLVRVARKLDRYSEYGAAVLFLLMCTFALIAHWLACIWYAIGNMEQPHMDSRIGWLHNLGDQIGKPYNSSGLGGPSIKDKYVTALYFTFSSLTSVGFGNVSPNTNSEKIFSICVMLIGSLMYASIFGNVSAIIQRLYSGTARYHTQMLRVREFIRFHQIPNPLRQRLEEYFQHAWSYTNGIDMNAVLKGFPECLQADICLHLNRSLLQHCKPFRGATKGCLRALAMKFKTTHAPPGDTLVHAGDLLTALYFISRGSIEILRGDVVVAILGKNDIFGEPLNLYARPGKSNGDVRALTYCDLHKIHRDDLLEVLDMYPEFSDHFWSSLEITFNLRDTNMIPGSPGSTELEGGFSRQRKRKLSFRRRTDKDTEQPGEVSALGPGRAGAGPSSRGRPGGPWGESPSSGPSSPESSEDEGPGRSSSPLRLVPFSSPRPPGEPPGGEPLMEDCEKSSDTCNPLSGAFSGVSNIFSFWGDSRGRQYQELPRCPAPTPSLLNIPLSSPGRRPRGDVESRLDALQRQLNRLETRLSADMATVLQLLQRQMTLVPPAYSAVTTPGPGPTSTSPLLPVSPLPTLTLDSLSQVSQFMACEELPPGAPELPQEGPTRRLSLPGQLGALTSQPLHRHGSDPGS
Regarding `Cc1ccc(S(=O)(=O)NC(=S)NC2CCCCC2)cc1`, the “hERG current change (%, negative = inhibition) at 1uM” value amounted to 11.2%.

`O=C(CSc1nnc(-c2cccnc2)o1)Nc1cccc(F)c1`: the “hERG current change (%, negative = inhibition) at 1uM” value was determined as 12.6%.

For the molecule `COc1cn(-c2ccccc2)nc1C(=O)Nc1ccc(C)cc1Cl`, the “hERG current change (%, negative = inhibition) at 1uM” value stood at 11.4%.

Turning to `CC(Oc1ccc(F)cc1F)C(=O)NNC(=S)NCC1CCCO1` (stereo not drawn), the “hERG current change (%, negative = inhibition) at 1uM” value is reported as 0.604%.

For `CCN1CCS/C1=C/C=C/C1=[N+](CC)CCS1.[I-]`, the “hERG current change (%, negative = inhibition) at 1uM” value is recorded as 3.64%.

In the case of `C=CCN(C#N)c1nc(OC)nc(N2CCCC2)n1`, the “hERG current change (%, negative = inhibition) at 1uM” value is recorded as 5.82%.

On to `CC(C)CC(NS(=O)(=O)c1cccc(C(=O)O)c1)C(=O)O` (stereo not drawn), for which the “hERG current change (%, negative = inhibition) at 1uM” value came to 21.8%.

As for `COc1ccc(NC(=O)CN(C)C(=O)COc2ccccc2Cc2ccccc2)cc1`, the “hERG current change (%, negative = inhibition) at 1uM” value is -2.56%.

Regarding `O=C1CC(NS(=O)(=O)c2ccc([N+](=O)[O-])cc2)CN1c1ccc(Cl)cc1` (stereo not drawn), the “hERG current change (%, negative = inhibition) at 1uM” value is reported as -20.1%.

Regarding `C#CCOCCOCCOCCNc1nc(N2CCN(C(=O)[C@H](CCCCN)n3cc(C(N)CC(C)C)nn3)CC2)nc(N2CCN(C(=O)[C@H](CCC(=O)O)n3cc(C(N)[C@H](C)CC)nn3)CC2)n1.Cl` (stereo partly drawn), the “hERG current change (%, negative = inhibition) at 1uM” value came to 8.86%.

`COc1ccccc1NC(=O)COC(=O)C12CC3CC(CC(Cl)(C3)C1)C2`: the “hERG current change (%, negative = inhibition) at 1uM” value is 19.3%.

In the case of `Cc1ccc(CNC(=O)CCCCCNC(=O)N2CCn3c2nc2ccccc23)cc1`, the “hERG current change (%, negative = inhibition) at 1uM” value worked out at 4.09%.

`O=C1NC(=O)C(c2cccs2)(c2cccs2)N1`: the “hERG current change (%, negative = inhibition) at 1uM” value is given as 9.06%.

Consider `CCC(C(=O)O)P(=O)(c1ccc(Cl)cc1)c1ccc(Cl)cc1` (stereo not drawn), for which the “hERG current change (%, negative = inhibition) at 1uM” value was determined as 14.3%.

Take `O=C(CCCC(=O)NC1CCCC1)NC1CCCC1`: the “hERG current change (%, negative = inhibition) at 1uM” value is 9.37%.

Regarding `CCOC1(NC(=O)c2ccccc2)C(C)=CC(=O)C=C1C`, the “hERG current change (%, negative = inhibition) at 1uM” value is given as -21.8%.

Regarding `CC1=CCC(C(=O)N/N=C/c2cccs2)C(c2ccc(F)cc2)C1` (stereo not drawn), the “hERG current change (%, negative = inhibition) at 1uM” value was found to be 4.87%.

With `Cc1ccc(CNC(=O)N2CCN(C)CC2)cc1`, the “hERG current change (%, negative = inhibition) at 1uM” value worked out at 3.96%.

Consider `COc1ccc(N2C(=O)/C(=C3/C=CC=CN3C)SC2=S)cc1`, for which the “hERG current change (%, negative = inhibition) at 1uM” value is given as 20.6%.

As to `COC(=O)N/N=C/c1cccnc1`, the “hERG current change (%, negative = inhibition) at 1uM” value amounted to 14%.

Regarding `CCOc1ccc(NC(=S)N/N=C(\C)Cc2ccc(OC)cc2)cc1`, the “hERG current change (%, negative = inhibition) at 1uM” value is 6.3%.

In the case of `O=C1CSC(c2ccncc2)N1Cc1ccco1` (stereo not drawn), the “hERG current change (%, negative = inhibition) at 1uM” value turned out to be 4.51%.

With `CSC1=NCCN1S(=O)(=O)c1ccc(F)cc1`, the “hERG current change (%, negative = inhibition) at 1uM” value is reported as -8.01%.

Turning to `CC(OC(=O)C(NC(=O)c1ccco1)C(C)C)C(=O)Nc1ncc(Cl)cc1Cl` (stereo not drawn), the “hERG current change (%, negative = inhibition) at 1uM” value is on record as -9.25%.

On to `Oc1ccc2[nH]ccc2c1`, for which the “hERG current change (%, negative = inhibition) at 1uM” value is 6.73%.

For `COc1cc2cc(CCOC(=O)c3ccco3)oc(=O)c2cc1OC`, the “hERG current change (%, negative = inhibition) at 1uM” value is listed as 12.8%.

With `COc1ccc(S(=O)(=O)N(CC(=O)N2CCN(c3ccccc3)CC2)c2ccccc2)cc1`, the “hERG current change (%, negative = inhibition) at 1uM” value is listed as 4.88%.

Turning to `O=C(Nc1ccc2c(c1)nc1n2CCOC1)C1CCCCC1`, the “hERG current change (%, negative = inhibition) at 1uM” value is given as 7.97%.

On to `Cc1cc(=O)n2c(n1)NC(Nc1cccc(C)c1C)=NC2c1ccccc1` (stereo not drawn), for which the “hERG current change (%, negative = inhibition) at 1uM” value is 14.8%.

On to `O=C1NC(=O)C(=Cc2ccc(OCCOc3ccc([N+](=O)[O-])cc3)cc2)C(=O)N1`, for which the “hERG current change (%, negative = inhibition) at 1uM” value was -2.94%.

In the case of `O=C(COC(=O)Cc1ccsc1)NCc1ccccc1`, the “hERG current change (%, negative = inhibition) at 1uM” value came to 13.3%.

Turning to `COc1ccc(-n2cnc3cc(N)ccc32)cc1`, the “hERG current change (%, negative = inhibition) at 1uM” value worked out at 15.3%.

`Cc1ccc(CNC(=O)C2CCN(S(=O)(=O)N3CCCCC3)CC2)cc1`: the “hERG current change (%, negative = inhibition) at 1uM” value stood at 3.51%.

Regarding `CCOC(=O)C1CCN(C(=O)COc2ccc(N(C)S(=O)(=O)c3ccc(C)cc3)cc2)CC1`, the “hERG current change (%, negative = inhibition) at 1uM” value was -3.73%.

For `COc1cccc(CNCCOCCO)c1OC.Cl`, the “hERG current change (%, negative = inhibition) at 1uM” value is 7.56%.

On to `Cc1cc(/C=C2/C(=O)NC(=O)N(c3ccccc3)C2=O)c(C)n1-c1ccc(F)cc1`, for which the “hERG current change (%, negative = inhibition) at 1uM” value turned out to be 3.09%.

With `Cc1ccc(S(=O)(=O)N(C)C)cc1NC(=O)COC(=O)COc1ccccc1[N+](=O)[O-]`, the “hERG current change (%, negative = inhibition) at 1uM” value stood at 8.13%.

On to `Cc1cc(NC(=O)CSCc2nc(-c3cccc(F)c3)oc2C)no1`, for which the “hERG current change (%, negative = inhibition) at 1uM” value was 17.4%.

As for `Cc1nc(NC(=S)NC(=O)c2cccs2)ccc1Br`, the “hERG current change (%, negative = inhibition) at 1uM” value is 10.6%.

Take `Nc1ccc(C(=O)OCc2nc3c(ccc4ccccc43)[nH]2)cc1`: the “hERG current change (%, negative = inhibition) at 1uM” value was found to be 14.2%.

With `O=C(c1ccccc1OC(F)F)N1CCN(S(=O)(=O)c2ccc3c(c2)OCCCO3)CC1`, the “hERG current change (%, negative = inhibition) at 1uM” value is on record as -2.97%.

Regarding `CC(=O)N1CCN(c2ccnc3cc(Cl)ccc23)CC1`, the “hERG current change (%, negative = inhibition) at 1uM” value is listed as -23.2%.

Regarding `N=c1c(C(=O)NCc2ccco2)cc2c(=O)n3ccccc3nc2n1CCc1ccccc1`, the “hERG current change (%, negative = inhibition) at 1uM” value was -84.2%.

`CC(=O)c1c(C)[nH]c(C(=O)COC(=O)c2cc(S(=O)(=O)N(C)c3ccccc3)ccc2Cl)c1C`: the “hERG current change (%, negative = inhibition) at 1uM” value worked out at 5.71%.

Consider `CCOc1ccc(NC(=O)C2CCCN(C(=O)Nc3ccccc3)C2)cc1` (stereo not drawn), for which the “hERG current change (%, negative = inhibition) at 1uM” value turned out to be 11.1%.

For the origin of these results see publication PMC4336329 (PLoS ONE, 2015).
